# The other results are listed elsewhere or left out. Shown are side measurements of this screen, not its main read-out; they come without a call.
# Columns and labels:
# Experiment in all cases: Primary Screen for Target Class Profiling of Small Molecule Inhibitors of Methyltransferases
# [1] = target: Glycine N-methyltransferase (Homo sapiens) (UniProt Q14749); details: purified enzyme, MTase-Glo SAH luminescence; measured here: GNMT inhibition; at 40 µM; stronger effect = lower value
# Outline: (§1)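 Each enzyme was reacted with SAM and its substrate, with compounds tested once at 40 uM; SAH formed was read by MTase-Glo luminescence.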
# [2] = target: Guanidinoacetate N-methyltransferase (Homo sapiens) (UniProt Q14353); details: purified enzyme, MTase-Glo SAH luminescence; measured here: GAMT inhibition; at 40 µM; stronger effect = lower value
# Outline: as §1
# [3] = target: Histamine N-methyltransferase (Homo sapiens) (UniProt P50135); details: purified enzyme, MTase-Glo SAH luminescence; measured here: HNMT inhibition; at 40 µM; stronger effect = lower value
# Outline: as §1
# [4] = target: Nicotinamide N-methyltransferase (Homo sapiens) (UniProt P40261); details: purified enzyme, MTase-Glo SAH luminescence; measured here: NNMT inhibition; at 40 µM; stronger effect = lower value
# Outline: as §1
# [5] = target: Phenylethanolamine N-methyltransferase (Homo sapiens) (UniProt P11086); details: purified enzyme, MTase-Glo SAH luminescence; measured here: PNMT inhibition; at 40 µM; stronger effect = lower value
# Outline: as §1
# % is scaled to controls: 0 for no effect and ±100 for the full control effect.
Structure (SMILES),"activity change, negative = inhibition [1] [%]","activity change, negative = inhibition [2] [%]","activity change, negative = inhibition [3] [%]","activity change, negative = inhibition [4] [%]","activity change, negative = inhibition [5] [%]"
O=C(CCc1nnc2n(Cc3ccc(Cl)cc3)c(=O)c3ccccc3n12)N1CCOCC1,-3.71,0.23,7.57,1.21,0.454
COC(=O)c1ncn2c1C(=O)N(Cc1cccc(OC)c1)C(C)(C(=O)NC1CCCC1)C2 (stereo not drawn),-6.61,-0.557,-1.76,-2.58,-3.79
CC(C)CNC(=O)c1ccc2c(=O)n(CC(C)C)c3nn(CC(=O)NC4CCCC4)c(=O)n3c2c1,3.87,3.84,6.53,-4.49,-2.24
C/C=C(\C)C(=O)OC[C@H]1O[C@@H](O[C@H]2[C@@H](O[C@H]3O[C@H](COC(=O)/C(C)=C/C)[C@@H](O)[C@H](O)[C@H]3O[C@@H]3O[C@H](CO)[C@@H](O)[C@H](OC(=O)/C(C)=C/C)[C@H]3O)O[C@H](COC(=O)/C(C)=C/C)[C@@H](O)[C@@H]2O)[C@H](O)[C@@H](O)[C@@H]1O,-2.15,-4.03,0.71,-11.7,-0.858
O=C(c1nc2c(o1)CCN(Cc1cccc(F)c1)CC2)N1CCOCC1,-5.07,-3.22,-0.903,-5.39,-8.27
COCCc1nncn1C1CCN(C(=O)c2ccc(C)s2)CC1,-2.64,-6.5,-1.27,-11.5,-7.74
O=C(NCCc1ccccc1)N1CC(c2noc(C3CCCN3CC3CC3)n2)C1 (stereo not drawn),-2.48,1.06,-1.03,3.14,4.06
COc1ccc(CN2C(=O)c3cc(C(C)(C)C)nn3CC2(C)C(=O)NC2CCCCCC2)cc1 (stereo not drawn),-0.514,2.88,1.98,-12.7,0.175
c1cc(NC2CCNCC2)nc(-c2cnc3ccccn23)c1,-0.19,-1.38,-7.28,-74.4,-14.5
Cc1ccc2c(c1)c1c3n2CCN(CC(O)CNC(C)C)C3CCC1 (stereo not drawn),-2.79,3.53,-6.44,4.26,-8.61
CC1(C(=O)NC2CCCCC2)Cn2c(cc3ccccc32)C(=O)N1C1CCCCCC1 (stereo not drawn),0.232,0,-0.69,3.23,-1.16
CC1(C)C[C@H](O)C[C@@]2(C)[C@H]1[C@H](O)C=C1COC(=O)[C@@]12O,0,-4.13,0.68,-17,1.97
Cc1cc(Cl)ccc1NC(=O)c1cc2n(n1)CC(C)(C(=O)NC1CCCCC1)N(C)C2=O (stereo not drawn),4.71,3.52,7.43,5.53,3.72
CCOc1cc(C(=O)Nc2ccc(Cl)c(-c3nc4ccccc4[nH]3)c2)cc(OCC)c1OCC,2.66,-5.3,11.3,-35.6,-4.27
Cc1cc2c(cc3n2CC(C)(C(=O)NC2CCCCCC2)N(Cc2ccccn2)C3=O)o1 (stereo not drawn),1.33,0,1.96,-2.85,1.54
Cc1cc(C)cc(N2C(=O)c3cc(-c4ccccc4)nn3CC2(C)C(=O)NCc2ccccc2)c1 (stereo not drawn),-1.64,5.1,0.505,-3,-0.008
CC1(C(=O)NC2CCCCCC2)Cn2c(ccc2-c2ccco2)C(=O)N1CCc1ccco1 (stereo not drawn),0.063,-2.72,5.73,2.51,3.97
CC1COC(Nc2ccc3ncnc(Nc4ccc(OCc5nccs5)c(Cl)c4)c3c2)=N1 (stereo not drawn),-8.68,20.5,-37.2,-8.77,3.24
CC1(C(=O)NC2CCCCCCC2)Cn2c(cc3occc32)C(=O)N1CCCN1CCCCCC1 (stereo not drawn),-1.42,2.84,-4.63,16.4,-1.24
CCC1CCCCN1CCCN1C(=O)c2cc3occc3n2CC1(C)C(=O)NC1CCC(C)CC1 (stereo not drawn),6.02,1.22,-3.66,10.6,4.15

Structure (SMILES),"activity change, negative = inhibition [1] [%]","activity change, negative = inhibition [2] [%]","activity change, negative = inhibition [3] [%]","activity change, negative = inhibition [4] [%]","activity change, negative = inhibition [5] [%]"
CCCn1c(=O)c2cc(Cl)ccc2n2c(SCC(=O)Nc3ccc4c(c3)OCCO4)nnc12,-6.23,0,0.972,-4.16,4.08
C=C1CCC(OC(C)=O)C2(C)CC3OC(=O)C(C)=C3CC12 (stereo not drawn),2.58,2.96,9.45,-13.5,-4.09
O=C(NCC1CCOC1)C1CCN(c2nc(-c3ccccc3)nc3c2CCC3)CC1 (stereo not drawn),-3.34,0.817,-2.1,0.792,0.38
O=C(c1coc(COc2ccc(F)cc2)n1)N1CCC(c2ccc(F)cc2)C1 (stereo not drawn),-5.2,-1.73,-2.18,-13.7,7.38
CCc1ccc(CNC(=O)c2cc3n(n2)CC(C)(C(=O)NC2CCCC2)N(C)C3=O)cc1 (stereo not drawn),1.54,1.85,6.54,2.07,-2.23
O=C1CCCC2=C1C(c1ncccc1Br)N=C(Nc1nc3ccccc3o1)N2 (stereo not drawn),–,6.73,–,-2.44,8.14
Cn1ccnc1CN[C@@H]1C[C@H](CO)[C@@H](O)[C@H]1O,-7.21,-15.3,-4.99,-13.4,-13.1
CN1C(=O)c2cc(C(=O)NCC3CCCO3)nn2CC1(C)C(=O)NC1CCCCCC1 (stereo not drawn),2.19,0,2.66,7.36,2.6
CC(=O)N1CCN(C(=O)c2ccc3oc(-c4cccnc4C)nc3c2)CC1,-7.01,-8.14,-4.66,-16.5,-10.7
COc1cccc(NC(=O)CCc2nnc3n(Cc4ccc(C)cc4)c(=O)c4ccccc4n23)c1,-6.62,2.54,-2.13,-3.52,-6.94
CCOC(=O)c1ccccc1NC(=O)N1Cc2c(sc3c2CCN(C)C3)-n2cccc2C1CC (stereo not drawn),-6.7,4.74,-1.12,-5.59,-0.059
O=C(NC1CCN(c2ccc3nnc(-c4ccccc4)n3n2)CC1)C1CCCC1,-5.98,-7.47,-3.53,-6.3,-7.89
COc1cccc(CNC(=O)CCc2nnc3n(Cc4ccccc4)c(=O)c4ccccc4n23)c1,-6.61,0.463,8.23,3.99,0.656
Cc1ccc(-c2ncc[nH]2)cc1NC(=O)c1ccc(OCc2ccccn2)cc1,-7.03,-4.87,-9.06,-25.7,-12.2
COc1ccccc1CNC(=O)C1c2c(n(C)c3ccccc23)SCC(=O)N1Cc1cccnc1 (stereo not drawn),12.6,0.755,8.69,8.37,9.68
COc1ccc([C@H]2CN(C(=O)C3CCN(C(=O)N(C)C)CC3)C[C@@H]2N)cc1,-3,-6.24,-0.685,-5.63,-2.02
CN1C(=O)c2cc3ccccc3n2CC1(C)C(=O)NCC(=O)NCc1ccccc1Cl (stereo not drawn),-0.571,5.76,0.804,8.31,-7.51
COc1cccc(N2C(=O)c3ccc(-c4ccco4)n3CC2(C)C(=O)NC2CCCC2)c1 (stereo not drawn),-2.87,3.08,-0.9,1.35,-1.32
CCN1C(=O)c2c(C(=O)NCCc3ccc(OC)c(OC)c3)ncn2CC1(C)C(=O)NC1CCCC1 (stereo not drawn),-5.82,0,7.52,-1.06,2.57
CC1(C(=O)NCc2ccc(F)cc2)Cn2cnc(C(=O)Nc3ccc(F)cc3Cl)c2C(=O)N1C1CC1 (stereo not drawn),3.19,1.73,13,2.51,11

Structure (SMILES),"activity change, negative = inhibition [1] [%]","activity change, negative = inhibition [2] [%]","activity change, negative = inhibition [3] [%]","activity change, negative = inhibition [4] [%]","activity change, negative = inhibition [5] [%]"
COC(=O)C1=COC(OC2OC(CO)C(O)C(O)C2O)C2C(C)C(OC(=O)/C=C/c3ccc(O)cc3)C(O)C12 (stereo not drawn),-6.72,-11.8,3.73,-20.2,-1.36
CCOc1cccc(C2c3cccn3-c3sc4c(c3CN2C(=O)NC(C)C)CCCC4)c1 (stereo not drawn),-5.78,3.2,-5.56,-9.13,-1.06
CC1CCN(c2nc3c(S(=O)(=O)c4ccccc4)nnn3c3ccc(Cl)cc23)CC1,-5.32,4.56,-2.26,-5.21,-5.49
CCc1ccccc1NS(=O)(=O)c1cc2c(cc1C)n(C)c(=O)n2C,-0.681,4.01,-6.91,-8.78,-6.02
COc1cccc(-c2cc(C3CCN(S(=O)(=O)c4cccc(OC)c4)CC3)[nH]n2)c1,6.87,1.32,5.67,3.88,6.07
CCN(Cc1ccncc1)C(=O)c1coc(COc2cccc(C(F)(F)F)c2)n1,-6.33,-6.86,-4.63,-7.65,2.19
Cc1noc(C)c1-c1cnc(Nc2ccc(CN3CCN(C)CC3)cc2)c2c1CCO2,-13.2,-10.6,-20.3,-28.7,-10.2
CCCC1c2ccc(C)n2CCN1C(=O)Nc1ccccc1C(=O)OC (stereo not drawn),-3.16,2.62,0.999,2.08,-0.132
Cc1nnsc1C(=O)N[C@H]1CCN(C(=O)c2ccco2)[C@H](C(=O)N[C@H](Cc2c[nH]c3ccccc23)C(N)=O)C1,-0.836,-0.378,2.47,-0.537,1.87
Cc1ccccc1CN1CC(=O)N(Cc2cccc(F)c2)c2ccccc2S1(=O)=O,-4.16,-2.06,-5.45,-7,-8.24
CN1C(=O)c2cc(C(=O)NCCN3CCOCC3)nn2CC1(C)C(=O)NCc1ccc(F)cc1 (stereo not drawn),5.64,2.61,0.709,2.49,0.485
Cc1cc2[nH]c(=O)[nH]c2cc1S(=O)(=O)NCc1ccc2c(c1)OCO2,4.22,0,1.23,-0.715,-2.05
CC1(C(=O)NC2CCCC2)Cn2c(ccc2-c2ccccc2)C(=O)N1Cc1ccco1 (stereo not drawn),0.378,4.56,4.64,-0.927,-0.202
O=C(CCCc1nnc2n3nc(-c4ccccc4)nc3c3ccccc3n12)NCc1ccccc1Cl,-3.29,3.58,10.1,12.8,0.784
CC1CCC(NC(=O)CCn2ccc3cc(S(=O)(=O)N4CCC(C)CC4)ccc32)CC1 (stereo not drawn),2.35,5.3,-1.92,-6.96,-3.05
CCCn1c(=O)c2ccc(C(=O)NC(C)CC)cc2n2c(=O)n(CC(=O)c3cccc(Cl)c3)nc12 (stereo not drawn),5.29,0.624,10.3,3.67,7.68
CCn1c(=O)n(CC)c2cc(S(=O)(=O)Nc3ccc(F)c(F)c3)ccc21,11.1,1.9,11.9,-1.67,5.31
CC1(C(=O)NC2CCCC2)Cn2c(ccc2-c2ccccc2)C(=O)N1Cc1cccc(F)c1 (stereo not drawn),0.94,4.76,-1.65,1.16,1.76

# Source: PubChem BioAssay AID1745853 (National Center for Advancing Translational Sciences (NCATS), 2022)
